Laboratory results from PubChem BioAssay AID463173 (ICCB-Longwood Screening Facility, Harvard Medical School, 2010).
Screen size: about 52,000 compounds; about 4,300 (8.3%) were called active. Rule as the data show it: active = survival mostly below about 52% (no sharp cut-off); inactive = mostly above about 56%. The list shows a part of the results.

The molecules below were run on DeltatarO mutant (assay: S. aureus survival, RN4220 and DeltatarO strains – OD600, teichoic acid synthesis inhibitors, primary screen (AID 463173)). Details: S. aureus RN4220 wild type/DeltatarO growth, OD600, 18 h, active compounds read low, screened at 18.75 µg/mL (by protocol).

SMILES | survival
Cc1ccc(S(=O)(=O)N2CCN(Cc3nc4ccc(C)cc4o3)CC2)c(C)c1 | inactive: 99%
Cc1ccc(-n2c(SCC(=O)N3CCCc4ccccc43)nc3c([nH]c4ccccc43)c2=O)cc1 | inactive: 73%
CCc1ccc(C2=CC(c3c(F)cccc3Cl)n3c(nc4ccccc43)N2)cc1 (stereo not given) | inactive: 86%
CCc1ccc(OCCn2c(C3CC(=O)N(Cc4ccc(F)cc4)C3)nc3ccccc32)cc1 (stereo not given) | active: 3%
CC(C)(C)C(=O)Nc1ccccc1C(=O)OCc1cc(=O)n2ccsc2n1 | inactive: 54%
COCCCNC(=O)CSC1=Nc2ccccc2C2=NC(CCC(=O)NCc3ccc(OC)cc3)C(=O)N12 (stereo not given) | inactive: 71%
O=c1[nH]cnc(O)c1Cc1c(O)nc[nH]c1=O | inactive: 99%
Nc1nn(-c2ccccc2)nc1C(=O)OCc1ccccc1 | active: 58%
CC1CCCN(CCCNC(=O)Cn2ncc3c([nH]c4ccccc43)c2=O)C1 (stereo not given) | inactive: 94%
O=C(COC(=O)C1CCC(N2C(=O)C3C4C=CC(C4)C3C2=O)CC1)c1ccc(F)cc1 (stereo not given) | inactive: 60%
COC(=O)c1scc(-c2ccc(C)cc2)c1S(=O)(=O)Nc1cc(C)ccc1OC | inactive: 75%
Cc1cccc(NC(=O)Cn2c(=O)n(CCCCCC(=O)NCc3ccc4c(c3)OCO4)c(=O)c3sccc32)c1 | inactive: 76%
Cc1ccc(NC(=O)c2cnc3sc(N4CCOCC4)nn3c2=O)cc1N(C)C | inactive: 80%
O=C(c1ccc2c(c1)N(Cc1ccccc1)C(=O)c1ccccc1S2(=O)=O)N1CCN(Cc2ccccc2)CC1 | inactive: 76%
COc1ccccc1C(=O)Nc1sc(Nc2ccccc2)nc1C(N)=O | inactive: 124%
COc1ccc(Nc2nc(C)nc(N)c2S(=O)(=O)c2ccccc2)cc1 | inactive: 84%
Cc1ccc(-c2cn3ccc(C)cc3n2)cc1 | active: 22%
CC(C)CCn1c(/C=C/c2ccccc2)nc2ccccc21 | active: -1%
Cc1cc(C)cc(NC(=O)CSc2nc3nccnc3c(=O)n2CCc2c[nH]c3ccccc23)c1 | active: 38%
CCOC(=O)Cn1c(=O)n(C2CCCCC2)c2nc(-c3c(F)cccc3Cl)nc(C(N)=O)c21 | inactive: 89%
CC(=O)c1cccc(NC(=O)CN(c2cc(C)cc(C)c2)S(=O)(=O)c2c(C)noc2C)c1 | inactive: 68%
COCc1nnc(NC(=O)C2CC(=O)N(c3ccc(C)cc3)C2)s1 (stereo not given) | inactive: 106%
N#Cc1c(C(F)(F)F)cc(-c2cccs2)nc1SCC(=O)Nc1cccc(Cl)c1 | inactive: 58%
COc1ccc(-c2onc(C)c2C)cc1S(=O)(=O)N(C)Cc1ccccc1 | inactive: 109%
Cc1cc(-n2ccnc(NCCc3ccc(S(N)(=O)=O)cc3)c2=O)ccc1Br | inactive: 94%
CCOc1ccc(N2CC(NC(=O)C3CCCC3)CC2=O)cc1 (stereo not given) | inactive: 83%
CCCNC(=O)C1CCC(Cn2c(=O)c3sccc3n(CC(=O)NCc3cccc(OC)c3OC)c2=O)CC1 (stereo not given) | inactive: 133%
Cc1ccc(C)c(N2CCN(CCCNC(=O)c3ccc4nc(CCc5ccccc5)oc4c3)CC2)c1 | inactive: 87%

SMILES | survival
COc1cccc(N2CC(NC(=O)c3cc(Cl)ccc3OC)CC2=O)c1 (stereo not given) | inactive: 64%
Cc1ccc(C(=O)N/C(=C\c2ccc(Cl)cc2)C(=O)NC2CCCCC2)cc1 | inactive: 86%
COc1ccc(OC)c(NS(=O)(=O)c2ccc(N3CCCCS3(=O)=O)cc2)c1 | inactive: 101%
COCCCNC(=O)c1ccc(Cn2c(=O)c3ccccc3n(Cc3c(C)cc(C)cc3C)c2=O)cc1 | inactive: 107%
C=CCN1C(=O)C2C(C(=O)NCc3ccccc3)C3C=CC2(O3)C1C(=O)NC1CCCC1 (stereo not given) | inactive: 64%
CCN1CCN(C(c2ccc(SC)cc2)c2c(O)cc(C)n(CCOC)c2=O)CC1 (stereo not given) | inactive: 94%
CCCCN(CC)C(=O)C1CCCN(c2ncnc3onc(C)c23)C1 (stereo not given) | inactive: 83%
Cc1ccccc1C(=O)N(Cc1sccc1C)C1CCS(=O)(=O)C1 (stereo not given) | inactive: 76%
COc1ccc(CCNC(=O)c2ccc(Cn3c(=O)c4ccccc4n(CC(=O)C(C)(C)C)c3=O)cc2)cc1OC | inactive: 86%
COc1cc(NC(=O)CCn2nc(C)c(S(=O)(=O)N3CCCCC3)c2C)cc(OC)c1OC | inactive: 124%
COc1ccccc1NC(=O)C1=C(C)Nc2c(C(=O)Nc3cccc(C)c3)cnn2C1c1ccccc1Cl (stereo not given) | active: -5%
CC1CCCCN1CCCNC(=O)CN1C(=O)c2cccnc2Oc2ccccc21 (stereo not given) | inactive: 105%
COc1ccc(Cl)cc1NC(=O)c1c(NCc2cccnc2)sc2c1CCC(C)C2 (stereo not given) | inactive: 67%
N#CC(C#N)=Cc1cn(CCOc2ccc3c(c2)OCO3)c2ccccc12 | inactive: 98%
CCc1ccc(C2C(C(=O)Nc3ccccc3C)=C(C)Nc3nc(SCc4cccc(OC)c4)nn32)cc1 (stereo not given) | inactive: 124%
CC(=O)c1ccc(NC(=O)CSc2nc(=O)n(Cc3ccncc3)c3c2CCC3)cc1 | inactive: 89%
Cc1ccc(N2CCN(C(=O)c3cn(C)c4ccc(S(=O)(=O)N(C)C)cc4c3=O)CC2C)cc1 (stereo not given) | inactive: 137%
CCS(=O)(=O)c1ncc(N(Cc2ccco2)Cc2ccccc2F)c(C(=O)Nc2cccc(Cl)c2)n1 | inactive: 60%
O=C(Cn1c(=O)nc(-c2ccccc2)c2ccccc21)NCc1ccccc1Cl | inactive: 67%
CCOC(=O)c1c(C)[nH]c(C)c1S(=O)(=O)NCC(=O)NCc1cccc(C)c1 | inactive: 134%
O=c1cc(-c2ccc(F)cc2)nc(SCc2nc(-c3ccc(Cl)cc3)no2)[nH]1 | inactive: 74%
CCOC(=O)c1ccc(CN(Cc2ccc(Br)cc2)S(=O)(=O)c2cccc(Cl)c2C)cc1 | inactive: 84%
COc1cc(C(=O)NCC(c2ccc(Cl)cc2)N2CCOCC2)cc(OC)c1OC (stereo not given) | inactive: 79%
Cc1ccc(NC(=O)Cn2nc(Cc3ccncc3)c3ccccc3c2=O)c(Cl)c1 | inactive: 66%
CCc1c(C)nc2nncn2c1NCc1ccc(Cl)cc1 | inactive: 86%
COc1ccccc1CNC(=O)CN1N=C(c2ccccc2)CCC1=O | inactive: 126%
O=C(CN1N=C(c2ccc(Cl)cc2)CCC1=O)NCCc1ccccc1 | inactive: 102%
